Data: the supplement of paper PMC10338343
± gives the standard deviation. The entries are a selection whose mix differs from that of the whole data set.

Test system: MIWI (PIWIL1) piRISC loaded with L1MC piRNA (30 nt)
Experiment: pre-steady-state target cleavage rate (min^-1); MIWI and MILI are mouse PIWI proteins and EfPiwi is from a freshwater sponge; tags in brackets are library labels; higher = faster piRNA-guided slicing of the target
Settings: guide: L1MC piRNA 5'p-UAACUAAAUACUAUGCAAGCUGUAGGUCCU
How it was run: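 The pre-steady-state cleavage rate was derived from a burst-and-steady-state fit of Cleave-'n-Seq data. For these assays, 1 nM active affinity-purified piRISC loaded with a single synthetic guide was mixed with […] a transcribed, DNA-blocked target RNA library in HEPES–potassium acetate buffer at 33 °C, with or without 500 nM GTSF1 partner protein, for 0–8 or 0–960 min. Sequencing counts of uncleaved targets were normalised to depth and to weakly complementary targets, and k3 was capped at 0.0001 min^-1 after three trials were pooled.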

[1] = auxiliary factor: 500 nM mouse GTSF1
[2] = auxiliary factor: none (no GTSF1)
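Also: 1 nM active piRISC with 0.1 nM target library at 33 °C single turnover.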

| Sequence | pre-steady-state target cleavage rate [1] | pre-steady-state target cleavage rate [2] |
| --- | --- | --- |
| UCCUGGUACAGCUUGCGAUAGUAUUUAGUUA | 0.0288 ± 0.0081 | 0.00377 ± 0.0034 |
| UCCUGCUACAGCAUGCAUAGUAUUAAGUUA | 0.983 ± 0.1 | 0.00583 ± 0.0025 |
| UCCUGCUAGUCCUUGCAUAGUAUUUAGUUA | 0.273 ± 0.023 | 0.0153 ± 0.003 |
| UCCACCUACAGCUUGCAUUCUAUUUAGUUA | 0.246 ± 0.024 | 0.00544 ± 0.0023 |
| UCCACCUACAGCUUGCAUACUAUUUUGUUA | 0.158 ± 0.019 | 0.0123 ± 0.002 |
| UCCUCCUAGUGCUUGCAUAGUAUUUAGAAA | 0.0872 ± 0.018 | 0.00228 ± 0.002 |
| UCGACCUACAGGUUGCAUAGUAUUAAGUUA | 0.671 ± 0.052 | 0.0126 ± 0.0024 |
| UCCACCUACACCUUGCAAAGUAUUUAGUUA | 0.933 ± 0.036 | 0.0329 ± 0.006 |
| UCCACCUACAGCUUGCAUAGUAUUUACUAA | 0.211 ± 0.031 | 0.00669 ± 0.0028 |
| UCCACCUACAGGUUGCAUAGUAUUAAGUUA | 0.862 ± 0.1 | 0.0119 ± 0.0023 |
| UCCACCUACAGCUAGCAUAGUAAUUAGUUA | 0.613 ± 0.035 | 0.00603 ± 0.0022 |
| UCCACCUACAGCUAGGAUAGUAUUUAGUUA | 1.21 ± 0.039 | 0.00711 ± 0.002 |
| UCCUGCUACAGCUUGGUUAGUAUUUAGUAA | 0.33 ± 0.033 | 0.0041 ± 0.0019 |
| UCCUCCUACAGCUUGCAAGUAUUUAGUUA | 0.433 ± 0.037 | 0.00627 ± 0.0024 |
| UCCUGGAACAGGUUGGAUAGUAUUUAGUUA | 0.698 ± 0.06 | 0.0175 ± 0.0039 |
| UGGACCUACAGCUUGCAUAGUUUUUAGAUA | 0.118 ± 0.013 | 0.0104 ± 0.0032 |
| UGGACCUACACCUUGCAUAGUAUUUUCAAA | 0.327 ± 0.05 | 0.00389 ± 0.0023 |
| UCCUCCUACAGCUGGCAUAGUAUUUAGUUA | 1.06 ± 0.044 | 0.0176 ± 0.0034 |
| UCCUGGAUGAGCGUGCAUAGUAUUUAGUUA | 0.766 ± 0.038 | 0.0181 ± 0.0051 |
| UCCUGGAUCAGCUUGCAUAGUAUUUACUAA | 0.0781 ± 0.014 | 0.00695 ± 0.0032 |

| Sequence | pre-steady-state target cleavage rate [1] | pre-steady-state target cleavage rate [2] |
| --- | --- | --- |
| UCCUCCUACACCUUGCAUUGUAUUUAGUUA | 0.612 ± 0.035 | 0.0239 ± 0.0046 |
| UCCUGGUACAGCUUGCAUACUAAUUAGUUA | 0.136 ± 0.028 | 0.00652 ± 0.0025 |
| UCCUGGUACAGCUUGCAUAGUAUAUAGUUA | 0.599 ± 0.07 | 0.0466 ± 0.011 |
| UCCUCCUACUGCUUGCAUAGAAUUUAGUUA | 0.323 ± 0.021 | 0.0163 ± 0.0047 |
| UCCUGGAGCAGCUUGCAUAGUAUUUAGUUA | 1.13 ± 0.044 | 0.0692 ± 0.013 |
| UCCUGCUACAGCUUGGAUUGUAUUUAGUUA | 0.216 ± 0.022 | 0.00769 ± 0.0022 |
| UCCUGGAUGAGCUUGCAUAGAAUUUAGUAA | 0.263 ± 0.044 | 0.00788 ± 0.0033 |
| UCCUGGUAAAGCUUGCAUAGUAUUUAGUUA | 0.551 ± 0.037 | 0.0419 ± 0.0086 |
| ACCACCUACAGCUUGCAUAGUAUUUACAAA | 0.597 ± 0.077 | 0.00495 ± 0.0036 |
| UGGUCCUACAGCUUGGAUAGUAUUUAGUUA | 1.22 ± 0.038 | 0.0568 ± 0.0069 |
| AGGACCUACAGCUUGCAUAGUAUAAUGUUA | 0.437 ± 0.051 | 0.0308 ± 0.0064 |
| UCCACCAUGAGCUUGCAUAGUAUUUACAAA | 0.155 ± 0.023 | 0.00278 ± 0.002 |
| UCCUGGAUGAGCUUGCAUAGUAUUUAGUAA | 0.713 ± 0.061 | 0.0327 ± 0.0088 |
| UGGACCUACAGCUUGCAUUCUAUUUAGUAA | 0.0545 ± 0.012 | 0.00462 ± 0.0023 |
| UGGACCUACAGGUAGCAUAGUAUUUAGUUA | 1.08 ± 0.087 | 0.00737 ± 0.002 |
| UCCUCCUACUGCUUGCAAAGUAUUUAGUUA | 0.824 ± 0.027 | 0.0288 ± 0.0055 |
| UGGACCUACAGCUUGCAGAGUAUUUAGUUA | 0.87 ± 0.066 | 0.0374 ± 0.009 |
| UCCUGGAUGAGCAUGCAUAGUAUUUAGUAA | 0.356 ± 0.046 | 0.00617 ± 0.0035 |
| UCCACCUACAGGUUGCAUAGAAUUUAGUUA | 0.327 ± 0.04 | 0.00955 ± 0.0021 |
| UCGACCAACAGCUAGCAUAGUAUUUAGUUA | 1.08 ± 0.046 | 0.0286 ± 0.0073 |

| Sequence | pre-steady-state target cleavage rate [1] | pre-steady-state target cleavage rate [2] |
| --- | --- | --- |
| UGGAGCUACAGCUUGCAUAGUAAUUAGUUA | 0.857 ± 0.043 | 0.0297 ± 0.0065 |
| UCGACCUACAGCUUGCAUAGUAUUUAGAAA | 0.662 ± 0.066 | 0.0117 ± 0.0047 |
| UCCUGGAUGUGACUUGCAUAGUAUUUAGUUA | 0.389 ± 0.038 | 0.03 ± 0.0086 |
| UCCACCUACAGCAUGCAAAGUAUUUAGUUA | 0.967 ± 0.039 | 0.0109 ± 0.0022 |
| UCCUGGAUGAGCUUGCUUACUAUUUAGUUA | 0.0559 ± 0.005 | 0.0077 ± 0.0023 |
| UCCUCCUACAGCUUGCUUAGUAUUAAGUUA | 0.264 ± 0.027 | 0.00647 ± 0.0019 |
| UCCACCUAGAGCUAGCAUAGUAUUUAGUUA | 0.339 ± 0.042 | 0.0098 ± 0.0019 |
| AGGACCUACACCUUGCAUAGUAUUUAGUAA | 0.838 ± 0.068 | 0.0538 ± 0.0089 |
| AGGACCUACAGCUUGCAUAGUAUUAAGUAA | 0.421 ± 0.044 | 0.0136 ± 0.0047 |
| UCCUGGAUGAGCUUGCAUACUAUUUACUUA | 0.0812 ± 0.02 | 0.00894 ± 0.0034 |
| UCCUGGAUGUGCUUGGUUAGUAUUUAGUUA | 0.0184 ± 0.0063 | 0.00481 ± 0.0023 |
| UCCUGGUACUCCUUGCAUAGUAUUUAGUAA | 0.0947 ± 0.021 | 0.00423 ± 0.0027 |
| AGGACCAUGAGCUUGCAUAGUAUUUAGAAA | 0.214 ± 0.023 | 0.00613 ± 0.0024 |
| UCCUGCUACAGCUAGCUUAGUAUUUAGUUA | 0.747 ± 0.049 | 0.00673 ± 0.0015 |
| UCCUCCUACAGCUUGCAUAGUAUUUUGUAA | 0.214 ± 0.034 | 0.00779 ± 0.0029 |
| UGGACCAACUGCUUGCAUAGUAUUUAGUUA | 1.27 ± 0.055 | 0.0655 ± 0.011 |
| UCCUCCUACAGCUUGGUUAGUAUUUAGUUA | 1.25 ± 0.047 | 0.00939 ± 0.0024 |
| UCCUGGUACAGCUUGCAAUCUAUUUAGUUA | 0.0647 ± 0.015 | 0.00352 ± 0.0029 |
| UCCUCCUACAGCUUGCAUAGUAUUAAGUAA | 0.284 ± 0.041 | 0.00611 ± 0.0026 |
| UCCUGGUACAGCUUGCAUAGUAUUUAGUGA | 0.289 ± 0.036 | 0.0296 ± 0.0058 |
